# The other results are listed elsewhere or left out.
# Experiments:
# Test in all cases: glycan array binding signal (z-score within array); higher = stronger binding
# Conditions in all cases: glycan notation: IUPAC condensed, linker removed
# Fuc(a1-2)Gal = molecular target: Fuc(a1-2)Gal
# How it was run: (§1)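 Negative Z-scores can be read as non-binding. The Z-score is calculated within each array and then averaged across arrays of one protein sequence at different concentrations or buffers and across linkers. Arrays, 3228 in all, were curated from the Consortium for Functional Glycomics database and kept only where the protein sequence was available.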
# Fuc(a1-2)Gal(b1-3)GalNAc = molecular target: Fuc(a1-2)Gal(b1-3)GalNAc
# How it was run: as §1
# [1] = molecular target: Fuc(a1-2)Gal(b1-3)GalNAc(a1-3)[Fuc(a1-2)]Gal(b1-4)Glc
# How it was run: as §1
# [2] = molecular target: Fuc(a1-2)Gal(b1-3)GalNAc(a1-3)[Fuc(a1-2)]Gal(b1-4)GlcNAc
# How it was run: as §1
# [3] = molecular target: Fuc(a1-2)Gal(b1-3)GalNAc(b1-3)Gal
# How it was run: as §1
# [4] = molecular target: Fuc(a1-2)Gal(b1-3)GalNAc(b1-3)Gal(a1-4)Gal(b1-4)Glc
# How it was run: as §1
# [5] = molecular target: Fuc(a1-2)Gal(b1-3)GalNAc(b1-4)[Neu5Ac(a2-3)]Gal(b1-4)Glc
# How it was run: as §1
# Fuc(a1-2)Gal(b1-3)GlcNAc = molecular target: Fuc(a1-2)Gal(b1-3)GlcNAc
# How it was run: as §1
# [6] = molecular target: Fuc(a1-2)Gal(b1-3)GlcNAc(b1-2)Man(a1-3)[Fuc(a1-2)Gal(b1-3)GlcNAc(b1-2)Man(a1-6)]Man(b1-4)GlcNAc(b1-4)GlcNAc
# How it was run: as §1
# [7] = molecular target: Fuc(a1-2)Gal(b1-3)GlcNAc(b1-2)Man(a1-3)[Fuc(a1-2)Gal(b1-3)GlcNAc(b1-2)Man(a1-6)]Man(b1-4)GlcNAc(b1-4)[Fuc(a1-6)]GlcNAc
# How it was run: as §1
# [8] = molecular target: Fuc(a1-2)Gal(b1-3)GlcNAc(b1-3)Gal(b1-4)Glc
# How it was run: as §1
# [9] = molecular target: Fuc(a1-2)Gal(b1-3)GlcNAc(b1-3)GalNAc
# How it was run: as §1
# [10] = molecular target: Fuc(a1-2)Gal(b1-3)GlcNAc(b1-3)[Fuc(a1-2)Gal(b1-3)GlcNAc(b1-6)]GalNAc
# How it was run: as §1
# [11] = molecular target: Fuc(a1-2)Gal(b1-3)GlcNAc(b1-3)[Gal(b1-4)GlcNAc(b1-6)]Gal(b1-4)Glc
# How it was run: as §1
# [12] = molecular target: Fuc(a1-2)Gal(b1-3)GlcNAc(b1-3)[Neu5Ac(a2-6)Gal(b1-4)GlcNAc(b1-6)]Gal(b1-4)Glc
# How it was run: as §1
# [13] = molecular target: Fuc(a1-2)Gal(b1-3)GlcNAc6S
# How it was run: as §1
# [14] = molecular target: Fuc(a1-2)Gal(b1-3)[Fuc(a1-4)]GlcNAc
# How it was run: as §1
# [15] = molecular target: Fuc(a1-2)Gal(b1-3)[Fuc(a1-4)]GlcNAc(b1-2)Man(a1-3)[Fuc(a1-2)Gal(b1-3)[Fuc(a1-4)]GlcNAc(b1-2)Man(a1-3)]Man(b1-4)GlcNAc(b1-4)GlcNAc
# How it was run: as §1
# [16] = molecular target: Fuc(a1-2)Gal(b1-3)[Fuc(a1-4)]GlcNAc(b1-2)Man(a1-3)[Fuc(a1-2)Gal(b1-3)[Fuc(a1-4)]GlcNAc(b1-2)Man(a1-6)]Man(b1-4)GlcNAc(b1-4)[Fuc(a1-6)]GlcNAc(b1-4)[Fuc(a1-6)]GlcNAc
# How it was run: as §1
# [17] = molecular target: Fuc(a1-2)Gal(b1-3)[Fuc(a1-4)]GlcNAc(b1-3)[Fuc(a1-3)[Gal(b1-4)]GlcNAc(b1-6)]Gal(b1-4)Glc
# How it was run: as §1
# [18] = molecular target: Fuc(a1-2)Gal(b1-3)[Fuc(a1-4)]GlcNAc(b1-3)[Gal(b1-4)GlcNAc(b1-6)]Gal(b1-4)Glc
# How it was run: as §1
# [19] = molecular target: Fuc(a1-2)Gal(b1-4)Fuc(a1-3)]GlcNAc(b1-2)Man(a1-3)[Fuc(a1-2)Gal(b1-4)[Fuc(a1-3)]GlcNAc(b1-2)Man(a1-6)]Man(b1-4)GlcNAc(b1-4)GlcNAc
# How it was run: as §1
# Fuc(a1-2)Gal(b1-4)Glc = molecular target: Fuc(a1-2)Gal(b1-4)Glc
# How it was run: as §1
# Fuc(a1-2)Gal(b1-4)Glc6S = molecular target: Fuc(a1-2)Gal(b1-4)Glc6S
# How it was run: as §1
# Fuc(a1-2)Gal(b1-4)GlcNAc = molecular target: Fuc(a1-2)Gal(b1-4)GlcNAc
# How it was run: as §1
# [20] = molecular target: Fuc(a1-2)Gal(b1-4)GlcNAc(b1-2)Man
# How it was run: as §1
# [21] = molecular target: Fuc(a1-2)Gal(b1-4)GlcNAc(b1-2)Man(a1-3)[Fuc(a1-2)Gal(b1-4)GlcNAc(b1-2)Man(a1-6)]Man(b1-4)GlcNAc(b1-4)GlcNAc
# How it was run: as §1
# [22] = molecular target: Fuc(a1-2)Gal(b1-4)GlcNAc(b1-2)Man(a1-3)[Fuc(a1-2)Gal(b1-4)GlcNAc(b1-2)Man(a1-6)]Man(b1-4)GlcNAc(b1-4)[Fuc(a1-6)]GlcNAc
# How it was run: as §1
# [23] = molecular target: Fuc(a1-2)Gal(b1-4)GlcNAc(b1-2)[Fuc(a1-2)Gal(b1-4)GlcNAc(b1-4)]Man(a1-3)[Fuc(a1-2)Gal(b1-4)GlcNAc(b1-2)Man(a1-6)]Man(b1-4)GlcNAc(b1-4)GlcNAc
# How it was run: as §1
# [24] = molecular target: Fuc(a1-2)Gal(b1-4)GlcNAc(b1-3)Gal(b1-4)GlcNAc
# How it was run: as §1
# [25] = molecular target: Fuc(a1-2)Gal(b1-4)GlcNAc(b1-3)Gal(b1-4)GlcNAc(b1-2)Man(a1-3)[Fuc(a1-2)Gal(b1-4)GlcNAc(b1-3)Gal(b1-4)GlcNAc(b1-2)Man(a1-6)]Man(b1-4)GlcNAc(b1-4)GlcNAc
# How it was run: as §1
# [26] = molecular target: Fuc(a1-2)Gal(b1-4)GlcNAc(b1-3)Gal(b1-4)GlcNAc(b1-3)Gal(b1-4)GlcNAc
# How it was run: as §1
# [27] = molecular target: Fuc(a1-2)Gal(b1-4)GlcNAc(b1-3)GalNAc
# How it was run: as §1
# [28] = molecular target: Fuc(a1-2)Gal(b1-4)GlcNAc(b1-3)[Fuc(a1-2)Gal(b1-4)GlcNAc(b1-6)]GalNAc
# How it was run: as §1
# [29] = molecular target: Fuc(a1-2)Gal(b1-4)GlcNAc(b1-3)[Fuc(a1-3)[Gal(b1-4)]GlcNAc(b1-6)]Gal(b1-4)Glc
# How it was run: as §1
# [30] = molecular target: Fuc(a1-2)Gal(b1-4)GlcNAc(b1-6)GalNAc
# How it was run: as §1
# [31] = molecular target: Fuc(a1-2)Gal(b1-4)GlcNAc6S
# How it was run: as §1
binder,measurement,setting,value
"AT1G73650(15) (Arabidopsis thaliana), F4HRY1 (protein) MGTVLDSHFLALTAIVTVIYQFIFFVITALFKFDQVTDFAGSTNFVILAVLTLVLKASWHFRQIVLTLLVVVWGLRLGIFLLMETRILQWGEDRRFDEQRGNIVRLIIFWTLQAVWVWTVSLPLTLVNASDGGGSLKPADVIGWTMETWVFGFLIEAAADQQKLSFKNSPENRGKWCDVGVWKYSRHPNYFGEMETLLWWGIFVAASPVLEGAEYLVIFGPLFLTLLLLFVSGIPLLEASADKKHGNSGAYRSYKKTTSPLILFPRGVYGNLPGWFKTVFLFEFPFYSRNLPQEGRLQNSKEKEVKDD",glycan array binding signal (z-score),Fuc(a1-2)Gal,-0.099
same,glycan array binding signal (z-score),Fuc(a1-2)Gal(b1-3)GalNAc,-0.344
same,glycan array binding signal (z-score),[1],-0.462
same,glycan array binding signal (z-score),[2],-0.412
same,glycan array binding signal (z-score),[3],-0.375
same,glycan array binding signal (z-score),[4],-0.432
same,glycan array binding signal (z-score),[5],-0.055
same,glycan array binding signal (z-score),Fuc(a1-2)Gal(b1-3)GlcNAc,-0.573
same,glycan array binding signal (z-score),[6],-0.126
same,glycan array binding signal (z-score),[7],0.402
same,glycan array binding signal (z-score),[8],-0.499
same,glycan array binding signal (z-score),[9],-0.598
same,glycan array binding signal (z-score),[10],0.694
same,glycan array binding signal (z-score),[11],-0.427
same,glycan array binding signal (z-score),[12],-0.388
same,glycan array binding signal (z-score),[13],-0.365
same,glycan array binding signal (z-score),[14],-0.478
same,glycan array binding signal (z-score),[15],1.82
same,glycan array binding signal (z-score),[16],-0.621
same,glycan array binding signal (z-score),[17],-0.434
same,glycan array binding signal (z-score),[18],-0.282
same,glycan array binding signal (z-score),[19],-0.176
same,glycan array binding signal (z-score),Fuc(a1-2)Gal(b1-4)Glc,-0.406
same,glycan array binding signal (z-score),Fuc(a1-2)Gal(b1-4)Glc6S,0.018
same,glycan array binding signal (z-score),Fuc(a1-2)Gal(b1-4)GlcNAc,-0.194
same,glycan array binding signal (z-score),[20],-0.619
same,glycan array binding signal (z-score),[21],-0.062
same,glycan array binding signal (z-score),[22],-0.028
same,glycan array binding signal (z-score),[23],-0.549
same,glycan array binding signal (z-score),[24],-0.393
same,glycan array binding signal (z-score),[25],-0.657
same,glycan array binding signal (z-score),[26],-0.547
same,glycan array binding signal (z-score),[27],1.03
same,glycan array binding signal (z-score),[28],2.33
same,glycan array binding signal (z-score),[29],1.18
same,glycan array binding signal (z-score),[30],-0.607
same,glycan array binding signal (z-score),[31],-0.344

# Source: the supplement of paper PMC8728848
